According to PubChem BioAssay AID493208 (National Center for Advancing Translational Sciences (NCATS), 2011):
The campaign covered roughly 44,000 compounds. About 340 (0.77%) were called active. Inconclusive results (about 5%) are left out. The call rests on the fitted dose curve; in most records, active means well fitted inhibition curve with a large enough effect; inconclusive means small, poorly fitted or top-dose-only effect; inactive means flat fitted curve, though single readings scatter. This is one part of the list.

Assay: Acumen qHTS Assay for Inhibitors of the mTORC1 Signaling Pathway in MEF (Tsc2-/-, p53-/-) Cells: Sytravon;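 further: plate controls were DMSO for no effect and rapamycin for full effect; nearly all actives have a fitted effect of over 50% in size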
Details: phospho-rpS6 immunofluorescence/PI, 24 h; series mostly up to 38.3 µM; activity change, negative = inhibition: at the top concentration
Outline: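 Plate MEFs (Tsc2-/-, p53-/-, empty vector) in DMEM/10% FBS; after 24 h add compound, incubate 24 h at 37 degree Celsius; fix in PFA/TX-100, block, stain phospho-rpS6 and 10 uM PI; scan at 488 nm; report % positive cells.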

**Q.** For `Cc1c(-c2ccc(Cl)cc2)c(=O)oc2c(CN3CCCC3)c(O)ccc12`, which “activity change, negative = inhibition” value is on record?
**A.** Its value is inactive: 0.49%.

**Q.** With `COc1ccc(N2CC(NC(=O)c3ccc(OC(C)C)cc3)CC2=O)cc1` (stereo not given) as the compound, how does the “activity change, negative = inhibition” value read?
**A.** The value was inactive: -12.4%.

**Q.** For `COc1ccccc1CNC(=O)CN1C(=O)CCn2nc(-c3ccccc3)cc21`, which “activity change, negative = inhibition” value is on record?
**A.** Its value is inactive: 1.82%.

**Q.** Which “activity change, negative = inhibition” value does the source give for `COc1ccc(-c2nc3sc(CCNS(=O)(=O)c4ccc(F)c(C)c4)c(C)n3n2)cc1` here?
**A.** The value was inactive: -14.5%.

**Q.** For `COc1ccc(N(C(=O)COc2ccccc2OC)S(=O)(=O)c2ccc(Cl)cc2)cc1`, which “activity change, negative = inhibition” value is on record?
**A.** The value was inactive: 0.291%.

**Q.** For `Cc1noc(C)c1S(=O)(=O)N1CCCC(C(=O)Nc2ccc(C(C)C)cc2)C1` (stereo not given), which “activity change, negative = inhibition” value is on record?
**A.** Its value is inactive: -11.9%.

**Q.** With `O=C(c1ccccc1)n1nc(-c2ccco2)nc1NCc1ccccc1Cl` as the compound, how does the “activity change, negative = inhibition” value read?
**A.** The value was inactive: -3.52%.

**Q.** Which “activity change, negative = inhibition” value does the source give for `CCOc1ccc(CCNC(=O)C2CCC(CNS(=O)(=O)c3ccc(Cl)cc3)CC2)cc1OCC` (stereo not given) here?
**A.** Its value is inactive: 0.302%.

**Q.** For `COc1cccc(-n2cc(C(=O)Nc3cc(C)c(Cl)cc3OC)c3ccccc3c2=O)c1`, which “activity change, negative = inhibition” value is on record?
**A.** The value was inactive: -3.3%.

**Q.** Which “activity change, negative = inhibition” value does the source give for `CCOc1ccc(CNC(=O)C2CCN(c3nn4c(=O)cc(C)nc4s3)CC2)cc1` here?
**A.** Its value is inactive: 4.4%.

**Q.** With `CC1CC(=O)N(CC(=O)Nc2ccc(F)cc2F)c2ccccc2S1` (stereo not given) as the compound, how does the “activity change, negative = inhibition” value read?
**A.** The value was inactive: -1.57%.

**Q.** For `CCOc1ccc(/C=C/c2nc(C#N)c(Nc3ccc(OCC)cc3)o2)cc1`, which “activity change, negative = inhibition” value is on record?
**A.** Its value is inactive: -1.06%.

**Q.** Which “activity change, negative = inhibition” value does the source give for `Cn1c(=O)[nH]c(=O)c2c1nc(NCCO)n2CC(O)COc1ccccc1` (stereo not given) here?
**A.** Its value is inactive: 4.07%.

**Q.** For `Cc1c(-c2ccccc2)c(=O)oc2c(CN3CCCC3)c(O)ccc12`, which “activity change, negative = inhibition” value is on record?
**A.** Its value is inactive: 16%.

**Q.** For `CCc1ccc(C2CC(=O)NC(NC(=O)c3ccc(C(C)(C)C)cc3)=N2)cc1` (stereo not given), which “activity change, negative = inhibition” value is on record?
**A.** Its value is inactive: 0.336%.

**Q.** Which “activity change, negative = inhibition” value does the source give for `Cc1nc2ccn(Cc3ccccc3)c(=O)c2cc1C(=O)NCc1ccccc1F` here?
**A.** The value was inactive: -20.6%.

**Q.** For `COc1ccc(NC(=O)Nc2cccc(-c3cn4cccnc4n3)c2)cc1`, which “activity change, negative = inhibition” value is on record?
**A.** Its value is inactive: 0.109%.

**Q.** With `O=C(NCCc1ccc(Cl)cc1)c1ccc2c(c1)N(Cc1ccccc1F)C(=O)c1ccccc1S2(=O)=O` as the compound, how does the “activity change, negative = inhibition” value read?
**A.** The value was inactive: -1.27%.

**Q.** For `CCOc1ccc(NC(=O)Cn2c(=O)n(Cc3ccc(C(=O)NCc4ccc(C)cc4)cc3)c(=O)c3ccccc32)cc1`, which “activity change, negative = inhibition” value is on record?
**A.** The value was inactive: 1.19%.

**Q.** For `COc1cccc(CNC(=O)CN2C(=O)COc3ccc(S(=O)(=O)N4CCCCCC4)cc32)c1`, which “activity change, negative = inhibition” value is on record?
**A.** Its value is inactive: -0.983%.

**Q.** For `CCc1cccc(NC(=O)Cn2c(=O)n(CCC(=O)NCC3CCCO3)c(=O)c3cc(OC)c(OC)cc32)c1` (stereo not given), which “activity change, negative = inhibition” value is on record?
**A.** Its value is inactive: 1.93%.

**Q.** With `Cc1ccc(-c2nc3ncccc3o2)cc1NC(=O)c1ccccc1Br` as the compound, how does the “activity change, negative = inhibition” value read?
**A.** Its value is inactive: -3.99%.

**Q.** With `CN(C)c1ccc(NC(=O)CN2CCN(CC(=O)Nc3ccc(Br)cc3)CC2)cc1` as the compound, how does the “activity change, negative = inhibition” value read?
**A.** Its value is inactive: 0.534%.

**Q.** Which “activity change, negative = inhibition” value does the source give for `Cc1ccc(CNC(=O)c2cc3c(s2)-c2ccc(Cl)cc2SC3)cc1` here?
**A.** The value was inactive: 3.04%.

**Q.** For `Cc1ccc(CSC2=Nc3ccccc3C3=NC(CC(=O)NCc4cccs4)C(=O)N23)cc1` (stereo not given), which “activity change, negative = inhibition” value is on record?
**A.** Its value is inactive: 4.77%.

**Q.** With `COc1ccc(C(=O)Nc2nnc(S(=O)(=O)N3CCC(C)CC3)s2)cc1OC` as the compound, how does the “activity change, negative = inhibition” value read?
**A.** The value was inactive: 0.521%.

**Q.** With `O=C(c1cccc(F)c1)N1CCC(c2c[nH]c3ccccc23)(c2c[nH]c3ccccc23)CC1` as the compound, how does the “activity change, negative = inhibition” value read?
**A.** Its value is inactive: -4.06%.

**Q.** Which “activity change, negative = inhibition” value does the source give for `CCN(C(=O)C1CCCN(c2ncnc3onc(-c4ccc(F)cc4)c23)C1)c1ccccc1` (stereo not given) here?
**A.** The value was inactive: 0.0385%.

**Q.** Which “activity change, negative = inhibition” value does the source give for `O=C(NCC1CCCO1)c1c[nH]c2ccc(S(=O)(=O)Nc3ccc(F)cc3F)cc2c1=O` (stereo not given) here?
**A.** The value was inactive: -11.4%.

**Q.** With `CCOc1ccc(NC(=O)NCCn2nnc3cc(S(=O)(=O)N(C)C)ccc32)cc1` as the compound, how does the “activity change, negative = inhibition” value read?
**A.** Its value is inactive: 0%.

**Q.** With `CC(C)(C)c1ccc(-c2nc(S(=O)(=O)c3ccccc3)c(N3CCOCC3)o2)cc1` as the compound, how does the “activity change, negative = inhibition” value read?
**A.** Its value is inactive: -22.7%.

**Q.** With `CC1CCCCN1Cc1c(O)ccc2c(=O)c(-c3ccccc3)coc12` (stereo not given) as the compound, how does the “activity change, negative = inhibition” value read?
**A.** The value was inactive: 1.13%.

**Q.** With `CCOC(=O)C1=C(CN2CCCCC2)NC(=O)NC1c1ccc(C)cc1` (stereo not given) as the compound, how does the “activity change, negative = inhibition” value read?
**A.** The value was inactive: -10.3%.

**Q.** With `COc1cccc(CNS(=O)(=O)c2ccc(N3CCCCS3(=O)=O)cc2)c1` as the compound, how does the “activity change, negative = inhibition” value read?
**A.** Its value is inactive: 0%.

**Q.** For `COc1ccc(Cn2ccc3nc(C)c(C(=O)NCc4ccc(OC)cc4OC)cc3c2=O)cc1`, which “activity change, negative = inhibition” value is on record?
**A.** Its value is inactive: -11%.

**Q.** With `COC(=O)c1ccccc1NC(=O)CCc1c(C)nc2c(c(C)nn2-c2ccccc2)c1C` as the compound, how does the “activity change, negative = inhibition” value read?
**A.** Its value is inactive: -5.55%.

**Q.** For `COc1ccc(-c2cc(C(=O)N3CCN(c4ccc(F)cc4)CC3)no2)cc1OC`, which “activity change, negative = inhibition” value is on record?
**A.** The value was inactive: -0.966%.

**Q.** For `COc1ccc(-n2nnc(-c3nc(-c4ccccc4C)no3)c2N)cc1Cl`, which “activity change, negative = inhibition” value is on record?
**A.** The value was inactive: -0.588%.

**Q.** With `COc1cccc(CNC(=O)CCCn2nc(C)n3c(cc4sccc43)c2=O)c1` as the compound, how does the “activity change, negative = inhibition” value read?
**A.** The value was inactive: -0.64%.

**Q.** With `Cc1ccc(N2CC(NC(=O)c3ccco3)CC2=O)cc1C` (stereo not given) as the compound, how does the “activity change, negative = inhibition” value read?
**A.** The value was inactive: -1.76%.

**Q.** With `CC(C)COc1ccc(-c2nonc2NC(=O)c2ccc(F)cc2)cc1` as the compound, how does the “activity change, negative = inhibition” value read?
**A.** Its value is inactive: -14.8%.

**Q.** For `O=C(NCCc1ccccc1)c1ccc(CSc2nc3ccncc3n2Cc2ccccc2F)cc1`, which “activity change, negative = inhibition” value is on record?
**A.** Its value is inactive: -0.49%.

**Q.** Which “activity change, negative = inhibition” value does the source give for `CCN(C(=O)c1nn(-c2ccc(C)cc2)c(=O)c2c1c1ccccc1n2C)c1ccc(F)cc1` here?
**A.** Its value is inactive: 3.2%.

**Q.** With `O=C(Nc1nnc(S(=O)(=O)N2CCCC2)s1)c1ccccc1F` as the compound, how does the “activity change, negative = inhibition” value read?
**A.** The value was inactive: 5.38%.

**Q.** Which “activity change, negative = inhibition” value does the source give for `CCOC(=O)c1cnc2c(C)cc(Cl)cc2c1NCCc1ccc(OC)c(OC)c1` here?
**A.** The value was inactive: -5.35%.

**Q.** For `O=C(Cn1ncc2c([nH]c3ccccc32)c1=O)NCc1cccc(Cl)c1`, which “activity change, negative = inhibition” value is on record?
**A.** The value was inactive: 4.16%.

**Q.** Which “activity change, negative = inhibition” value does the source give for `COc1ccc(NC(=O)C(C)n2c(C)c3cnn(-c4ccccc4)c(=O)c3c2C)cc1Cl` (stereo not given) here?
**A.** Its value is inactive: -1.39%.

**Q.** With `CCOC(=O)c1cc(-c2ccc(F)cc2)n(CCC(=O)NCc2ccccc2OC)c1C` as the compound, how does the “activity change, negative = inhibition” value read?
**A.** Its value is inactive: -7.24%.

**Q.** With `O=C(CC1N=C2c3ccccc3N=C(SCc3ccccc3Cl)N2C1=O)NCc1cccs1` (stereo not given) as the compound, how does the “activity change, negative = inhibition” value read?
**A.** The value was inactive: -0.232%.

**Q.** Which “activity change, negative = inhibition” value does the source give for `COc1ccc(NC(=O)C(=O)NCC(c2cccnc2)N2CCc3ccccc3C2)cc1` (stereo not given) here?
**A.** Its value is inactive: 6.05%.

**Q.** With `CCOC(=O)C1CCCN(Cc2cn3c(-c4ccc(Br)cc4)nnc3s2)C1` (stereo not given) as the compound, how does the “activity change, negative = inhibition” value read?
**A.** The value was inactive: -4.97%.

**Q.** Which “activity change, negative = inhibition” value does the source give for `CCOc1ccc(NC(=O)Cc2ccc(-n3c(C)nc4cccnc43)cc2)cc1` here?
**A.** The value was inactive: -8.3%.

**Q.** With `COc1ccc(C(=O)NNc2ncnc3c2cnn3-c2ccccc2)cc1` as the compound, how does the “activity change, negative = inhibition” value read?
**A.** The value was inactive: 10.1%.

**Q.** With `CC(=O)N1CCC(N(Cc2ccco2)C(=O)Nc2ccc(Br)cc2F)CC1` as the compound, how does the “activity change, negative = inhibition” value read?
**A.** Its value is inactive: -5.21%.

**Q.** With `Cc1ccc(NC(=O)CN2C(=O)c3ccccc3Sc3ccc(C(=O)N4CCCC4)cc32)cc1` as the compound, how does the “activity change, negative = inhibition” value read?
**A.** The value was inactive: -1.63%.

**Q.** For `O=C(Nc1cc(Cl)ccc1Cl)c1cc(S(=O)(=O)N2CCCc3ccccc32)ccc1F`, which “activity change, negative = inhibition” value is on record?
**A.** The value was inactive: -7.44%.

**Q.** Which “activity change, negative = inhibition” value does the source give for `CCN(CC)CCNC(=O)c1[nH]c2ccccc2c1Sc1ccc(Cl)cc1` here?
**A.** The value was inactive: 1.22%.

**Q.** With `CN(C(=O)c1ccc2c(c1)N(Cc1ccccc1F)C(=O)c1ccccc1S2(=O)=O)C1CCCCC1` as the compound, how does the “activity change, negative = inhibition” value read?
**A.** Its value is inactive: -1.5%.

**Q.** Which “activity change, negative = inhibition” value does the source give for `COc1ccc(NC(=O)C(NC(=O)/C=C\c2ccc3c(c2)OCO3)c2ccc(OC)cc2)cc1` (stereo not given) here?
**A.** The value was inactive: 5.82%.

**Q.** With `Cc1cc2n(n1)CCC(=O)N2Cc1ccc(C(=O)Nc2ccc(Br)c(C)c2)cc1` as the compound, how does the “activity change, negative = inhibition” value read?
**A.** Its value is inactive: -0.166%.
